# Data published in the supplement of paper PMC10126150.
# Values marked as one replicate rest on one cluster of the flow cell; about a third of the high ones do not repeat.
# System: ATP
# Experiment: switch fluorescence ratio, 500 uM ATP over buffer (Cy3 cluster intensity, sum of 5 cycles each) (fold (ratio)); higher = stronger signal-on switching upon ATP binding; sequences stand for … in TCGTCGGCAGCGTCAGATGTGTATAAGAGACAGTTTTTTTTTTTTTTTTTTTTTTTTT…TC
# Conditions: aptamer strand: ATP DNA aptamer (quencher-CACCTGGGGGAGTATTGCGGAGGAAGG + anchor), 100 nM annealed; ATP concentration: 500 uM; one replicate
# In short: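 Clusters with intensities outside 100-1000 RFU were excluded. The remaining Cy3-labelled switching-strand clusters on a modified Illumina MiSeq flow-cell had been annealed to 100 nM quencher-labelled ATP aptamer and imaged in selection buffer, then after 15 min with 500 uM ATP at 22 °C, for five cycles separated by NaOH stripping and re-annealing. The fluorescence ratio, averaged per switch-domain sequence, is each cluster's summed target-cycle Cy3 intensity over its summed buffer-cycle Cy3 intensity.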
# 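Further: ATP exposure 15 min at 22 °C before imaging.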
row,Sequence,switch fluorescence ratio
1,CGTGCGTGAT,1.13
2,GGGTAGATAA,1.01
3,TGATCTACTA,0.99
4,TAGAGCCCAA,1.03
5,TCTCTCCCAG,5.32
6,ACGATCGAGA,1.01
7,TTAGGCCGTC,0.977
8,GCGTTTTTGA,0.98
9,ACGTTATGGT,1.13
10,ACAGCCGCCC,1.2
11,TTTAGAAATG,0.984
12,AGCTTCTGC,0.992
13,GAGCCCATAA,0.984
14,CGTTTATGGC,1.01
15,TGTCTTTTTG,0.996
16,CAAGCTTACA,1.05
17,GGGTAATAGT,0.989
18,TATACCCATC,1.09
19,GCGCTATGG,1.48
20,GTGAAATTAA,0.986
21,CAAATTATAG,0.969
22,TAGATCGATG,0.973
23,ATTTGAAAAA,1.14
24,CGTACGAACT,1.01
25,CTATATGAGA,0.963
26,CTGAACGGGG,1.04

row,Sequence,switch fluorescence ratio
1,GGTGGAACTG,0.975
2,ATTCGTCCGT,1.14
3,ACGTCACTTA,1.65
4,CTATCCTAGC,1.07
5,AGTCGAACAC,0.989
6,ATCTTTTGGC,0.983
7,TATTCTTCGG,0.995
8,TGCCCGTAGC,1.18
9,CCGTGTATGA,1.03
10,AGGGCGTA,1.03
11,CAGTAAAGGC,0.983
12,CATGATATAA,0.97
13,CTCACCTCGG,1.08
14,GGGAAACCGC,1.34
15,AAATATATAG,1
16,TGCCTATTTG,1
17,TAGTATTATC,1.04
18,GTAAGTCCGT,0.995
19,TGCTCAAGTA,0.985
20,GGTTACGATT,1.03
21,CACTACCTGG,1.35
22,GAGTCAAGAG,1.12
23,CAGTTATAAC,0.989
24,TCCTCGAAAA,1.44
25,AAGGTCCCCC,1.01
26,TTCACTAATC,1.04

row,Sequence,switch fluorescence ratio
1,TCGATATCAT,1.01
2,TAGAGAAGC,1.05
3,CTATCCAATT,1.02
4,AAGAAACACT,1.09
5,TGTAAGCTTT,1.01
6,GTGTTATTAA,1.05
7,AGTACCCACT,1.35
8,CATTTACGAC,1.11
9,AACTCGCACG,1.1
10,GTTCACAGAG,1.06
11,ATACACTGTT,1.06
12,GTATCGAGTG,0.964
13,AGTCTTAGTG,0.977
14,TTTGAAGAGA,0.957
15,GCAGGCACGT,1
16,GCGGTCACCG,0.978
17,AGGGCATAAA,1.02
18,GAACTGGCGT,0.96
19,CTCTGCCCGT,1.04
20,GTCGGTGGGC,0.982
21,TTGGGATTGC,0.98
22,TTGTGAAAGC,1.03
23,CGCTGCCTGG,1.02
24,AGTTCGGCCC,0.971
25,TCGTAAGTCA,1.01
26,CGATAGATTT,1.05

row,Sequence,switch fluorescence ratio
1,ACAGAGGTGC,1.05
2,GCAACCGGGT,1.02
3,TTGCTGGCGA,0.988
4,AAACTCACTA,1.06
5,AGCTTTGATC,1.03
6,CACCATCGAA,1.01
7,TCGCTACGTT,1.03
8,TTAGATGTTG,1
9,TAGTGTATC,0.994
10,CTAAGTTGAA,1.98
11,ACCACCATGG,1.04
12,TTGGAACCTG,1.11
13,TATTCTAATA,1
14,ATTATCGTTT,0.953
15,ACGGATACTC,2.06
16,GTGCGGATGC,0.941
17,TTATAGGAGA,1.01
18,CATATTTTAA,0.975
19,GTGGCGATA,1
20,GCCTATAATG,1.01
21,CCCGTTGGGA,1.01
22,TGTAGGGCAA,0.987
23,GGGTCCGTCC,0.994
24,ATAACATGGA,1
25,TTTCGTTCAC,1.32
26,ATCACTCAGA,1.03

row,Sequence,switch fluorescence ratio
1,CTGAGCTAGC,0.986
2,GGCCACTGAA,1.01
3,ACACGAGTTC,1.02
4,GGCTAGTG,1.03
5,GCAGGGAA,0.998
6,TTGGAAATCA,0.951
7,TGGCGCATTG,1.02
8,AGACAGATCA,1.01
9,ACGTACTTAA,1.41
10,GGTATCGGGA,1.02
11,TGGTGGGTC,0.963
12,AGCTTGAGTT,0.93
13,AAAGTTGGAG,1.01
14,CTGAGTACCA,0.981
15,GGAGGCCCTG,0.997
16,ATTTCGATCT,0.981
17,AACCCAGGAT,1.15
18,CATAGGGTCA,0.966
19,ATCAAGTGTG,0.96
20,GGTTTAGGTA,0.994
21,GGAACAACCC,1.02
22,GGGAATGCCA,0.981
23,TCAGGATTAA,1.01
24,TATCTCGGCA,1.12
25,TGTGTAGTAC,1.11
26,TAACCGCCGG,1.05

row,Sequence,switch fluorescence ratio
1,CCGAGAAACC,1.63
2,CTCACGGTGC,2.03
3,ACTGTAGATG,1.15
4,GTCAATGCGT,1.08
5,AAGCCCGCTG,1.08
6,CCCGCCAGGG,1.05
7,TTTAAAGCTA,1.03
8,ACGGTTTTCT,0.971
9,AAAAAGATGT,0.948
10,TCCGGCGTAG,1.09
11,GTCAAAGAGC,0.971
12,GATAGTGCGC,0.974
13,TATCTTGTA,1.04
14,GGCATACCAG,1.02
15,GGATCTGCTG,0.982
16,TAAGCACAA,1.11
17,TTCCCCTTAC,1.5
18,TTTTGCGGG,0.945
19,CTCAATCTTA,0.966
20,TCGGCAGGGT,1.02
21,GTACCATAGC,1.08
22,ATTTCGAAAA,0.969
23,ATATAACTTG,0.965
24,GTAGCAGCTC,2.19
25,AAACCCGGCG,1
26,GGCTTGTGTC,0.957

row,Sequence,switch fluorescence ratio
1,CGCAACATGA,1.4
2,GGGTTAAAT,1.01
3,AACCTACAT,1.16
4,ATGAGCTTCA,1.01
5,AATGATCGG,1.02
6,CCGTCTTAGA,0.998
7,TCACAGTCTT,1.04
8,TCGTGGGAGT,0.984
9,CGGGGAAAGG,0.994
10,AAAAGCATTT,1.02
11,GTCAGGAATG,1.05
12,GACATCGACA,1.01
13,TTATATACTC,1.13
14,AAGTTAAAGC,1.09
15,GGGATGGTAT,1.01
16,AGCAAGTAGA,1.1
17,AGGAGATTTC,1.07
18,AGTCCACAGT,1.1
19,AGCACGTAGA,1.03
20,ATCTGCCCTT,0.99
21,CCGCTGGGCC,2.11
22,AACTAAGGAC,1.03
23,CGCTACGAGA,1.09
24,CCCTCAGGGC,1.43
25,AAGGAGGTAT,1
26,ATTCTGAGG,0.976

row,Sequence,switch fluorescence ratio
1,GACTCCTGGA,1.05
2,TTCCGAGTAG,4.01
3,TCTAGGATTA,0.976
4,TGGGCTTCAA,1.04
5,GGCTTAATTA,1
6,GGAAGGGGCG,1.1
7,ACCTGGTCCG,1.23
8,CAAATGCCGT,1.05
9,AGCGGCAAAA,0.999
10,AAGATTTAAT,0.96
11,AAAGTATGT,0.989
12,TAAGGTTCTG,0.995
13,TGGTTCTCTT,0.999
14,GAAATTATCT,1.03
15,TTGGCCAGGT,1.06
16,AAATTATCAT,0.893
17,AAGCCTACAG,1.04
18,CACGTTACTA,1.43
19,CGTGATTGTA,1.02
